Measurements from PubChem BioAssay AID485294 (National Center for Advancing Translational Sciences (NCATS), 2010).
In all, about 370,000 compounds went through this assay and about 150 (0.041%) were called active. The inconclusive results got no clear call from the source; some entries with a clear call stand among them for comparison. The call rests on the fitted dose curve; in most records, active means well fitted inhibition curve with a large enough effect; inconclusive means small, poorly fitted or top-dose-only effect; inactive means flat fitted curve, though single readings scatter. Potencies of inconclusive entries are left out as doubtful fits.

Molecular target: Beta-lactamase (Escherichia coli (strain K12)) (UniProt P00811)
Test: qHTS Inhibitors of AmpC Beta-Lactamase (assay with detergent); further: nearly all actives have a fitted effect of over 25% in size;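 on activity change, negative = inhibition: 0% = no-compound wells and -100% = no-enzyme wells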
Conditions: AmpC hydrolysis of nitrocefin, absorbance 480 nm, 0.01% Triton; activity change, negative = inhibition: at 114 µM (top of the series)
Procedure, shortened: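 20 mM phosphate pH 7.0 + 0.01% (detergent screen) or 0.0001% Triton X-100; 5.3 nM AmpC reagent; cpd preinc 15 min RT; nitrocefin (800 uM stock) to start; A480 q20 s × 4 min; Activity was normalised to no-enzyme and no-compound control wells.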
Potency means the concentration at half of the fitted maximal effect; tags describe the fitted curve by direction and shape.

UniProt P00811, sequence (P00811 whole entry, looked up): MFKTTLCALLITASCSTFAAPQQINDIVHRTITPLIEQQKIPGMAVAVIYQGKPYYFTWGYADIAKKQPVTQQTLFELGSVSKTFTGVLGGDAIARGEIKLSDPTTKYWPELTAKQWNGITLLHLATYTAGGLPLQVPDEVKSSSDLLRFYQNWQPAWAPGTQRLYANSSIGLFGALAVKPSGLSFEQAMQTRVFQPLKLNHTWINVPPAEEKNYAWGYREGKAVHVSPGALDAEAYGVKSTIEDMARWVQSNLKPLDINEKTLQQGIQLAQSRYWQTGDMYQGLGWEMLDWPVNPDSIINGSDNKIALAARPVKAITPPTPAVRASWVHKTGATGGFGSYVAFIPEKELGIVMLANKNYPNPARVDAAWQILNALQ

Q: With `Cc1ccc(NC(=O)Cc2ccc(-n3c(C)nc4cccnc43)cc2)cc1C` as the compound, how does the Potency read?
A: The Potency was inconclusive [inhibitor, single point].

Q: Which Potency does the source give for `CCN1CCN(C(c2cccs2)C(C)NC(=O)NC2CCCCC2)CC1` (stereo not drawn) here?
A: The Potency was inconclusive [inhibitor, full curve, poor fit].

Q: Which Potency does the source give for `Cc1ccc(C(O)CN2C3=NCCCN3c3ccccc32)cc1` (stereo not drawn) here?
A: The Potency was inconclusive [inhibitor, single point].

Q: Which Potency does the source give for `CC(C)Cc1nc(SCC(=O)N2CCOCC2)c2c(=O)n(C)c(=O)n(C)c2n1` here?
A: The Potency was inconclusive [inhibitor, full curve, poor fit].

Q: For `CCCCNC(=O)N1CCOCCOCCN(C(=O)NCCCC)CCOCCOCC1`, which Potency is on record?
A: Its Potency is inconclusive [inhibitor, partial curve, poor fit].

Q: Which Potency does the source give for `CC(C)Nc1nc2n(c(=O)n1)CCN2C(C)C` here?
A: Its Potency is inconclusive [inhibitor, full curve, poor fit].

Q: With `CC1(C)CC2CC(C)(CN2S(=O)(=O)c2cccc(C(=O)OCC(N)=O)c2)C1` (stereo not drawn) as the compound, how does the Potency read?
A: The Potency was inconclusive [inhibitor, single point].

Q: Which Potency does the source give for `O=C(NC1CCCCC1)C(c1ccncc1)N(C(=O)c1csnn1)c1ccccc1F` (stereo not drawn) here?
A: The Potency was inconclusive [inhibitor, partial curve].

Q: `O=C(CCn1c(=O)oc2ccccc21)Nc1ccc2c(c1)OCCO2` was tested. Which “activity change, negative = inhibition” value did it give?
A: The value was inactive: 13%.

Q: With `CCOC(=O)C(CC)Sc1ncnc2nc[nH]c12` (stereo not drawn) as the compound, how does the Potency read?
A: The Potency was inconclusive [inhibitor, full curve, poor fit].

Q: With `COc1ccc(-c2cc(C(C)=O)c(C)n2CCC(=O)NCc2ccccc2OC)cc1` as the compound, how does the “activity change, negative = inhibition” value read?
A: The value was inactive: 3.28%.

Q: Which Potency does the source give for `CCCCNC(=O)O[C@H]1C[C@@H]2CCN3C(=O)CCC[C@H]([C@H]1CC)[C@H]23` here?
A: The Potency was inconclusive [inhibitor, single point].

Q: For `Cc1ccc(S(=O)(=O)N2CCCN(C)c3nc4ccccc4nc32)cc1`, which Potency is on record?
A: Its Potency is inconclusive [inhibitor, full curve, poor fit].

Q: `Nc1nc(NCCc2ccccc2)nc(NCCO)c1[N+](=O)[O-]` was tested. Which Potency did it give?
A: The Potency was inconclusive [inhibitor, partial curve, poor fit].

Q: For `COc1ccc(OCc2cc(C(=O)N(C)CC3CCCCO3)no2)c(Cl)c1` (stereo not drawn), which Potency is on record?
A: Its Potency is inconclusive [inhibitor, full curve].

Q: `COc1ccc(C(=O)Cn2nnc(-c3ccccc3NC(=O)c3ccco3)n2)cc1` was tested. Which Potency did it give?
A: The Potency was inconclusive [inhibitor, full curve, poor fit].

Q: For `COc1ccc(C2=NS(=O)(=O)N(C)C(C(=O)N(C)Cc3ccccc3)=C2)cc1`, which Potency is on record?
A: The Potency was inconclusive [inhibitor, partial curve, poor fit].

Q: `CN(Cc1ccccc1)C(=O)c1ccc2c(c1)OCCO2` was tested. Which Potency did it give?
A: The Potency was inconclusive [inhibitor, partial curve].

Q: Which Potency does the source give for `Cc1cc(C)cc(OC(=O)C23CCC(C)(C(=O)O2)C3(C)C)c1` (stereo not drawn) here?
A: Its Potency is inconclusive [inhibitor, full curve, poor fit].

Q: For `CN(C)C(=O)Nc1cccc(OC(=O)N(C)C)c1`, which “activity change, negative = inhibition” value is on record?
A: The value was inactive: 2.17%.

Q: With `CCCC(=O)Nc1nc(C)c(-c2csc(Nc3ccccc3C)n2)s1` as the compound, how does the “activity change, negative = inhibition” value read?
A: Its value is inactive: 1.48%.

Q: With `Cc1nc(SC(C(=O)c2ccccc2)c2ccccc2)n[nH]1` (stereo not drawn) as the compound, how does the Potency read?
A: The Potency was inconclusive [inhibitor, full curve, poor fit].

Q: For `CCn1c(=O)n(CC)c2cc(S(=O)(=O)Nc3c(C)cccc3C)ccc21`, which Potency is on record?
A: The Potency was inconclusive [inhibitor, partial curve, poor fit].

Q: How did the Potency turn out when `Cc1ccc(C)c(S(=O)(=O)N2CCCC2CNC(=O)C(=O)NCC2CCCO2)c1` (stereo not drawn) was run?
A: The Potency was inconclusive [inhibitor, full curve, poor fit].

Q: With `CCOC(=O)C1=C(C)NC(=O)NC1c1ccc2c(c1)OCCO2` (stereo not drawn) as the compound, how does the Potency read?
A: Its Potency is inconclusive [inhibitor, partial curve, poor fit].

Q: How did the “activity change, negative = inhibition” value turn out when `COc1ccc(C(=O)Nc2nc3ccccc3[nH]2)cc1OC` was run?
A: The value was inactive: 1.48%.

Q: `CCN(CC(=O)N1CCCC1)S(=O)(=O)c1ccc(OC)cc1` was tested. Which Potency did it give?
A: The Potency was inconclusive [inhibitor, full curve, poor fit].

Q: With `COC(=O)c1ccc(Nc2nnc(-c3ccc(C)c(S(=O)(=O)N4CCN(C)CC4)c3)c3ccccc23)cc1` as the compound, how does the “activity change, negative = inhibition” value read?
A: Its value is inactive: 6.3%.

Q: For `CN(C)c1ccc(Nc2nc(-c3cccnc3)cs2)cc1`, which Potency is on record?
A: Its Potency is inconclusive [inhibitor, partial curve].

Q: `C=CCn1c(SCC(=O)NCCCC)nc2scc(-c3ccco3)c2c1=O` was tested. Which Potency did it give?
A: Its Potency is inconclusive [inhibitor, full curve, poor fit].

Q: `CC1=NN(C(=O)CSCc2ccccc2)C(O)(c2ccc(Cl)cc2)C1` (stereo not drawn) was tested. Which “activity change, negative = inhibition” value did it give?
A: The value was inactive: 1.85%.

Q: `CC1=C(C)CC(C(=O)Nc2nc(C)cs2)C(C(=O)O)C1` (stereo not drawn) was tested. Which “activity change, negative = inhibition” value did it give?
A: Its value is inactive: -9.04%.

Q: With `Cc1ccccc1-c1nc(CN2CCC(C(=O)NC3CC3)CC2)c(C)o1` as the compound, how does the Potency read?
A: The Potency was inconclusive [inhibitor, partial curve].

Q: `Nc1ccc(-c2nc3ncccc3o2)cc1` was tested. Which Potency did it give?
A: The Potency was inconclusive [inhibitor, full curve, poor fit].

Q: For `COc1ccc(C(=O)Oc2c(OC)cc(C(=S)N3CCOCC3)cc2OC)cc1`, which Potency is on record?
A: Its Potency is inconclusive [inhibitor, partial curve, poor fit].

Q: With `COc1ccc(CC[n+]2cc(/N=C(\C)[O-])on2)cc1OC` as the compound, how does the Potency read?
A: Its Potency is inconclusive [inhibitor, single point].

Q: How did the “activity change, negative = inhibition” value turn out when `Cc1ccc(C(=O)n2c(-c3ccccc3)cnc2SCC(=O)Nc2ccccc2)cc1` was run?
A: Its value is inactive: -11.1%.

Q: With `O=c1cc(N2CCN(c3ccccc3)CC2)[nH]c(=O)n1C1CCCCC1` as the compound, how does the Potency read?
A: The Potency was inconclusive [inhibitor, full curve, poor fit].

Q: With `O=C1c2ccccc2C(=O)N1OCc1ccc(Cl)cc1` as the compound, how does the Potency read?
A: The Potency was inconclusive [inhibitor, full curve, poor fit].

Q: For `Cc1cc(C)c(NC(=O)Cn2nnc(C(=O)NCc3ccc4c(c3)OCO4)c2N)c(C)c1`, which “activity change, negative = inhibition” value is on record?
A: Its value is inactive: -1.13%.

Q: For `O=C1CSC(c2ccccc2F)N1c1ccccc1F` (stereo not drawn), which “activity change, negative = inhibition” value is on record?
A: The value was inactive: -11.3%.

Q: How did the “activity change, negative = inhibition” value turn out when `Cc1ccc(C(=O)OCC(=O)NCc2cccs2)cc1C` was run?
A: Its value is inactive: 2.01%.

Q: For `CCOc1ncccc1C(=O)Oc1ccc2c(c1)OCO2`, which Potency is on record?
A: The Potency was inconclusive [inhibitor, full curve, poor fit].
